Measurements as given in paper PMC4336329 (PLoS ONE, 2015).
In all, about 310,000 compounds went through this assay and about 2,200 (0.71%) showed an effect of 50% or more. The effect is printed as a negative number. This is one part of the list.

target: human ether-à-go-go-related gene (hERG) potassium channel (human, UniProt Q12809); test: primary screen, population patch clamp on CHO cells stably expressing hERG
Sequence (Q12809 whole entry, looked up): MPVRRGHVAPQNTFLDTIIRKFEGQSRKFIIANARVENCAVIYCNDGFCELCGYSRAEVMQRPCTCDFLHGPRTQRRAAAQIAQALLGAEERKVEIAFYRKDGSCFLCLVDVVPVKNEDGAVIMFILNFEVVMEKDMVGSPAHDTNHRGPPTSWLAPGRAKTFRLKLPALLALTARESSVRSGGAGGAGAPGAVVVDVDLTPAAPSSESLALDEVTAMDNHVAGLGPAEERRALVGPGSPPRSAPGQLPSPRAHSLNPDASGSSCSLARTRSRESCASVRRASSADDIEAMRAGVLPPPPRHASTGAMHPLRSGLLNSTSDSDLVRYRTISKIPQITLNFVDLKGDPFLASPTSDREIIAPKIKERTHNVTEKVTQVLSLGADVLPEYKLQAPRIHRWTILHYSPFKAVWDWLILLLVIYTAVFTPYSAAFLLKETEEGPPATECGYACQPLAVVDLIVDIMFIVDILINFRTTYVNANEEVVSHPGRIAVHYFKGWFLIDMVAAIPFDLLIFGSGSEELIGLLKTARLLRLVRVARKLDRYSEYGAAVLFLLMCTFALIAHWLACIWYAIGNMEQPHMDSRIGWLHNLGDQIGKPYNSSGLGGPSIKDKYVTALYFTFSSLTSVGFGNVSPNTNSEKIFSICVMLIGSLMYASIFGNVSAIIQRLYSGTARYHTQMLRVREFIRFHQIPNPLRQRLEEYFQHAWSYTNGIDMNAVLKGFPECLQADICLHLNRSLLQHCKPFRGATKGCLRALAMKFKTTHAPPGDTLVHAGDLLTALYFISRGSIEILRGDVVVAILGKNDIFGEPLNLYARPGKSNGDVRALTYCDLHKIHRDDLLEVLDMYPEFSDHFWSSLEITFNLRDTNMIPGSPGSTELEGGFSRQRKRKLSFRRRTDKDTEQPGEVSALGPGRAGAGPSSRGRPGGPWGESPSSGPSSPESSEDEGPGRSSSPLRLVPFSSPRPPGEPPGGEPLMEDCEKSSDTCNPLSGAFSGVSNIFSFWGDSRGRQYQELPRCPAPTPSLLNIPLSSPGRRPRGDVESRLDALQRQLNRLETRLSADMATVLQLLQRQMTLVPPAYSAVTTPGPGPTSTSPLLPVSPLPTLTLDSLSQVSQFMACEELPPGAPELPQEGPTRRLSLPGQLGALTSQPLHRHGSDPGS

| SMILES | hERG current change (%, negative = inhibition) at 1uM |
| --- | --- |
| CS(=O)(=O)Nc1ccc(-c2cn3cccnc3n2)cc1 | 0.474% |
| COc1ccc2nc(C)cc(NCc3cccc(C(F)(F)F)c3)c2c1 | 5.09% |
| Cc1nnc(-c2cnn(-c3ccccc3)c2N)n1Cc1cccc(C(F)(F)F)c1 | 1.55% |
| O=C(CCCCCN1C(=O)CCC1=O)Nc1ncn[nH]1 | 6.07% |
| COc1cccc(Cn2c(Oc3ccccc3)nc3c2c(=O)n(C)c(=O)n3C)c1 | 9.66% |
| O=C1COc2ccc(C(=O)CSc3nc4ccccc4c(=O)n3-c3ccc(Cl)c(Cl)c3)cc2N1 | 13.3% |
| Nc1nnc(SCC(=O)OCC(=O)Nc2ccc(Br)cc2F)s1 | 12.2% |
| CCOC(=O)N1CCN(C(=O)CSCc2ccc(Cl)cc2)CC1 | -16.2% |
| O=c1oc(Nc2ccccc2F)nc2ccccc12 | 20.7% |
| CN(C)c1ccc(N=Nc2nc3ccccc3n2C)cc1 | 1.69% |
| Br.O=C(CN1CCCCC1)c1cccc(Br)c1 | 7.08% |
| CCN1/C(=N\N)c2cccc3cccc1c23 | 11.9% |
| CSCC[C@H](NC(=O)C1CCN(S(=O)(=O)c2ccc(C)cc2)CC1)C(=O)NCC1CCCO1 (stereo partly drawn) | -14.1% |
| O=C(Nc1nnc(C2CC2)s1)c1cccs1 | 21.6% |
| Cc1cccc(NC(=S)NC2CC3C=CC2C3)c1 (stereo not drawn) | 9.63% |
| O=C(O)/C=C/c1cn(-c2ccccc2)nc1-c1ccc(-c2ccc([N+](=O)[O-])cc2)o1 | 11.4% |
| O=C(Cc1ccccc1[N+](=O)[O-])Nc1ccc2c(c1)OCCO2 | 18.2% |
| COc1ccc(NC(=O)COc2ccc(N(C)S(=O)(=O)c3ccc(C)cc3)cc2)cc1 | 7.31% |
| COc1ccccc1CNC(=O)c1ccc(CS(=O)(=O)c2ccccc2OC)o1 | -8.57% |

| SMILES | hERG current change (%, negative = inhibition) at 1uM |
| --- | --- |
| CCOC(=O)CN1C(=O)N[C@@H](c2ccccc2)[C@@H](C(=O)OC)[C@H]1C | 11.2% |
| COC(=O)c1ccc(Cl)c(NC(=O)CSc2ncn[nH]2)c1 | 10.7% |
| Cn1c(SCC(=O)NNC(=O)Cc2ccccc2)nc2ccccc2c1=O | 6.65% |
| C=CCN(CC=C)S(=O)(=O)c1ccc(F)cc1 | -2.89% |
| CCOc1cc(C(=O)NCc2ccc(F)cc2)ccc1OCC(=O)N1CCCCC1 | -0.748% |
| O=C(CNC(=O)C12CC3CC(CC(C3)C1)C2)N/N=C\c1ccccn1 | -2.99% |
| CCCc1cc(=O)[nH]c(SCC(=O)N2CCN(S(=O)(=O)c3ccc4ccccc4c3)CC2)n1 | 11.2% |
| CC(=O)c1ccc(NC(=O)Nc2cccc3ccccc23)cc1 | 16.6% |
| COC(=O)Cn1c(=O)c2c(nc3n2CCCN3Cc2ccccc2)n(C)c1=O | 6.16% |
| CCOC(=O)C1=C(CS(=O)(=O)c2ccc(F)cc2)NC(=O)NC1c1ccc(O)c(O)c1 (stereo not drawn) | 17.4% |
| Cc1cc(C)c2nc(SCC(=O)NC(=O)c3cccn3C)cc(C)c2c1 | 3.51% |
| COC(C[C@H]1O[C@@H]1C(=O)[C@H](C)OCc1ccccc1)OC | 21.7% |
| COc1ccc(S(=O)(=O)NC2CCCC2)cc1NC(C)=O | 17.3% |
| Cc1csc(SCC(=O)NC2CCCC2)n1 | 10.9% |
| O=C(CCNS(=O)(=O)c1ccccc1)NNC(=O)c1csc(N2CCOCC2)n1 | 8.57% |
| O=C(COC(=O)/C=C/c1cccc(F)c1)NNC(=O)c1ccccc1 | 13.1% |
| COc1ccc(NC(C)=O)cc1NC(C)c1nc2sc(C)c(C)c2c(=O)[nH]1 (stereo not drawn) | 17% |
| COc1ccccc1OCC(=O)Nc1nc2c(s1)CCCC2 | 14.5% |
| COc1ccc(C2=C(O)C(C)N(c3ccccc3)C2=N)cc1OC (stereo not drawn) | 11.2% |

| SMILES | hERG current change (%, negative = inhibition) at 1uM |
| --- | --- |
| Cc1ccc(NC(=O)CSc2nnnn2-c2ccc3c(c2)OCO3)cc1C | 5.03% |
| C/C(=C/C(=O)NCc1ccccc1)C(=O)O | 3.27% |
| COc1ccc(CCNCc2c(OC)ccc3ccccc23)cc1OC.Cl | 7.47% |
| O=C(O)CCC(=O)Nc1ccc(S(=O)(=O)N2CCCC2)cc1 | 7.51% |
| Cc1ccc(-c2nnc(SCC(=O)OC(C)C)n2N)cc1 | 14.8% |
| CC1CCCC(NC(=O)COC(=O)c2ccc3ncsc3c2)C1C (stereo not drawn) | 3.58% |
| Cc1ccc(C)n1-c1nnc(N2CCC(C(=O)N3CCN(C)CC3)CC2)s1 | 8.88% |
| CCN(CC)C(=O)c1cccc(NC(=O)c2ccc3c(=O)n4c(nc3c2)CCC4)c1 | 15.8% |
| CCOC(=O)c1cc(-c2ccccc2)n(CC(=O)N2CCCC2)c1C | 2.09% |
| CCC(=O)OCc1cc(=O)oc2ccc3ccccc3c12 | 21.4% |
| O=C(OC1CCOC1=O)c1cc(S(=O)(=O)N2CCOCC2)c(Cl)cc1Cl (stereo not drawn) | 1.09% |
| Cc1cc(C)cc(N(CCC#N)C(=O)CSc2ncnc3sccc23)c1 | -6.93% |
| O=C(/C=C/c1ccccc1)NCCS(=O)(=O)N1CCN(c2ccccc2F)CC1 | 8.86% |
| Cc1nn(-c2ccccc2)c(C)c1/C=C/C(=O)OCC(=O)Nc1ccc(C(N)=O)cc1 | 10.6% |
| CNc1c(N)n(Cc2ccccc2)c(=O)[nH]c1=O | 14.8% |
| CN(C)S(=O)(=O)c1ccc(N2CCCC2)c(C(=O)Nc2nc(-c3ccc(F)c(F)c3)cs2)c1 | 16.5% |
| COc1ccc(N=c2oc3cc(O)ccc3cc2C(=O)NCC2CCCO2)c(OC)c1 (stereo not drawn) | 4.72% |
| COc1ccc2c3c([nH]c2c1)C(C)N(CCC(=O)NN)CC3 (stereo not drawn) | 13.9% |
| CCN(CC)S(=O)(=O)c1ccc(NC(=O)c2cnccn2)cc1 | 13% |
